One assay concerns HSkMC. Put plainly: cytotoxicity call (relative viability < 0.9). The note with it: 10 µM.
In another assay the test system is HepG2. In words: cytotoxicity call (relative viability < 0.9). The note with it: 10 µM.
For a further assay, the system named is S. aureus RN4220. In words: growth inhibition call (relative growth <= 0.2). The note with it: 50 µM.

This passage reports cytotoxicity call and growth inhibition call results from the antibiotic and cytotoxicity screens of Wong et al. (2023).

The other results are listed elsewhere or left out.

On to `COc1ccc(NC(=O)Nc2cccc3c2O[C@@H](CN(C)S(=O)(=O)c2cn(C)cn2)[C@H](C)CN([C@@H](C)CO)C3=O)cc1`, for which the cytotoxicity call in the assay with HSkMC and in the assay on HepG2 was “inactive” each time. In addition, the growth inhibition call in the assay with S. aureus RN4220 is “inactive”.
Consider `C[C@@H]1CCCCO[C@H](CN(C)CC2CC2)[C@H](C)CN([C@@H](C)CO)C(=O)c2cc(NS(C)(=O)=O)ccc2O1`, for which the cytotoxicity call in the assay with HSkMC and in the assay on HepG2 was “inactive” in each case. In addition, in the assay on S. aureus RN4220, the growth inhibition call is “inactive”.
With `Cc1ccc(CNC[C@H]2Cn3nncc3CO2)o1`, the cytotoxicity call in the assay on HSkMC (human skeletal muscle cells) and in the assay on HepG2 was “inactive” throughout. In addition, in the assay on S. aureus RN4220, the growth inhibition call is “inactive”.
As to `C[C@H]1CCCCO[C@H](CN(C)S(=O)(=O)c2ccccc2)[C@@H](C)CN([C@@H](C)CO)C(=O)c2cc(NC(=O)Nc3ccc(F)cc3)ccc2O1`, the cytotoxicity call in the assay with HSkMC was “inactive”. The cytotoxicity call in the assay with HepG2 was “active”. Besides, in the assay with S. aureus RN4220, the growth inhibition call was “inactive”.
`Cc1noc(C)c1NC(=O)Nc1ccc2c(c1)C(=O)N([C@@H](C)CO)C[C@@H](C)[C@H](CN(C)C(=O)Nc1ccc(C(F)(F)F)cc1)O2`: the cytotoxicity call in the assay with HSkMC and in the assay with HepG2 was “inactive” throughout. Further, the growth inhibition call in the assay with S. aureus RN4220 is “inactive”.
